# About 31,000 (8.9%) of roughly 350,000 compounds were called active. This list was built around the results that the source calls inconclusive (neither active nor inactive); the mix of calls is not that of the screen. Calls come from the whole dose curve; as a rule, active = well fitted inhibition curve with a large enough effect; inconclusive = small, poorly fitted or top-dose-only effect; inactive = no such curve, though single readings can be large or run the other way. Where the call is inconclusive, the potency comes from a doubtful curve fit.
# Molecular target: Histone-lysine N-methyltransferase EHMT2 (Homo sapiens) (UniProt Q96KQ7)
# Chain of UniProt Q96KQ7 (Q96KQ7 whole entry, looked up): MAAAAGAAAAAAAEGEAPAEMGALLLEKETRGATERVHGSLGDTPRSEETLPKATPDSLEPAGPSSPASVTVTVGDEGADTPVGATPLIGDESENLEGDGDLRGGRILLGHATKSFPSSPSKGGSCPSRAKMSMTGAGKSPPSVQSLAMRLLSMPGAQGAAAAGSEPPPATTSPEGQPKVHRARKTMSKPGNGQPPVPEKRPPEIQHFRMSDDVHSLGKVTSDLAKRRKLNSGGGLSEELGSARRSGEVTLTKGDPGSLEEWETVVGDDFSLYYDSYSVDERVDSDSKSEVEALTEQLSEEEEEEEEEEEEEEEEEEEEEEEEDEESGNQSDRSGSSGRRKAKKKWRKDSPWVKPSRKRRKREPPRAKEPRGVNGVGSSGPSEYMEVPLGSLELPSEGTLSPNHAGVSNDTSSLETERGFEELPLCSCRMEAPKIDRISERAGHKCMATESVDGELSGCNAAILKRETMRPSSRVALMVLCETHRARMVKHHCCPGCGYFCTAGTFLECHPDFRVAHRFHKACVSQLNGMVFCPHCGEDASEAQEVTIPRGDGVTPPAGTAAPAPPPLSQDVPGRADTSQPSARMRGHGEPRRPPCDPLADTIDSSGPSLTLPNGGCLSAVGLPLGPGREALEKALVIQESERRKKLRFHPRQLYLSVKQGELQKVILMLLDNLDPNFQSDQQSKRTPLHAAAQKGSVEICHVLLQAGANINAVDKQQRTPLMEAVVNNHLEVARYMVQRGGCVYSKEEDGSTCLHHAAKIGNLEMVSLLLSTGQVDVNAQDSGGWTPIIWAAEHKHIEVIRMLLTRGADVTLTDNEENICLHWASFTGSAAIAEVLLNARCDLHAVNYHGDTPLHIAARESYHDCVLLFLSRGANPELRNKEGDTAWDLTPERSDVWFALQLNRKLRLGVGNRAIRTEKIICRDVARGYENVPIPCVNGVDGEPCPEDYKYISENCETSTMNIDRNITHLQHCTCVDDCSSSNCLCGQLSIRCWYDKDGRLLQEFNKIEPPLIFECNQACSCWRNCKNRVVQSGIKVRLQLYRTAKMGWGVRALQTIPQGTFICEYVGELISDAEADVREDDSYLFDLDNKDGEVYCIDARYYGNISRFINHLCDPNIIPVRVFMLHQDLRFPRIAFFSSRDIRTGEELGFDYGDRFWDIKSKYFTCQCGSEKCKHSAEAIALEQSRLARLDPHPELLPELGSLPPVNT
# Assay: qHTS Assay for Inhibitors of Histone Lysine Methyltransferase G9a; note: nearly all actives have a fitted effect of over 75% in size
# Settings: G9a H3K9 monomethylation, AlphaScreen, 2 h; activity, negative = inhibition: at 59 µM (top of the series) unless noted
# Method in brief: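 G9a (20 nM) preincubated 15 min RT with compounds, then 500 nM biotinylated H3K9 peptide and 20 uM SAM added; 2 h RT reaction. Monomethyl-H3K9 product detected by AlphaScreen with anti-H3K9me1 antibody, streptavidin donor and anti-rabbit IgG acceptor beads.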
# % is set by controls: 0 for no effect and ±100 for the full control effect; potency is the fitted concentration of half-maximal effect; tags give direction and shape of the fitted curve.
SMILES,Potency,"activity, negative = inhibition"
COc1cccc(F)c1C(C[N+](=O)[O-])c1c(N)n(C)c(=O)n(C)c1=O (stereo unspecified),"inconclusive: 89.1 µM [inhibitor, partial curve, poor fit]",–
CCN1CCCc2cc(CN(CCN3CCOCC3)C(=S)Nc3cccc(OC)c3)ccc21,"inconclusive: 31.6 µM [inhibitor, single point]",–
COc1cc2c(cc1OC)-c1nnc(C)n1C1(CCCC1)C2,"inconclusive: 89.1 µM [inhibitor, single point]",–
Cc1nc(-c2ccc(-n3nncc3-c3ccco3)cc2)cs1,"inconclusive: 50.1 µM [inhibitor, partial curve]",–
c1ccc(CNc2ccccn2)cc1,inactive,–
Cc1cccc(-c2c3c(=O)n(C)c(=O)n(C)c3cn2C(C)C)c1,–,inconclusive: -95.1% [inhibitor]
Cc1ccccc1C(=O)Nc1ccc(NC(=O)c2cccs2)cc1,"inconclusive: 8.91 µM [inhibitor, partial curve, poor fit]",–
COc1ccccc1C(=O)NNC(=S)Nc1ccccc1,active: 28.2 µM,–
CN1CCN(c2ccc(NS(=O)(=O)c3ccc(Cl)cc3)cn2)CC1,"inconclusive: 50.1 µM [inhibitor, partial curve, poor fit]",–
CCC1CCCCN1CCNC(=O)C1CCN(S(=O)(=O)c2cccc3nsnc23)CC1 (stereo unspecified),"inconclusive: 20 µM [inhibitor, full curve]",–
COc1ccc(N2CC(C(=O)NCc3cccnc3)CC2=O)cc1 (stereo unspecified),"inconclusive: 31.6 µM [inhibitor, single point]",–
COC(=O)c1cc(NC(=O)CCS(=O)(=O)c2cc(Br)cc3c2N(C(=O)C2CC2)CC3)cc(C(=O)OC)c1,inactive,–
CCC(CC)C(=O)NCCN1CCN(C(=O)C(CC)CC)CC1,active: 5.62 µM,–
O=C(CNC(=O)c1ccco1)OCC(=O)c1ccc(Cl)cc1,inactive,–
CCN(C(=O)CN1C(=O)c2ccc([N+](=O)[O-])cc2C1=O)C1CCS(=O)(=O)C1 (stereo unspecified),"inconclusive: 50.1 µM [inhibitor, partial curve]",–
Cc1cccc(OCC(=O)NCc2ccncc2)c1C,"inconclusive: 35.5 µM [inhibitor, single point]",–
CC1CC/C(=N/Nc2ccccc2)C(=O)N1 (stereo unspecified),"inconclusive: 35.5 µM [inhibitor, single point]",–
Cc1cc(/C=C2\SC(=O)N(C)C2=O)c(C)n1-c1ccc(O)cc1,active: 79.4 µM,–
C=C(C)CN1C(=O)c2ccccc2C1=O,inactive,–
COc1cc(Nc2nc(-c3ccccc3)c3cc(C)ccc3n2)cc(OC)c1OC,active: 39.8 µM,–
CCN1c2ccccc2NC2N=C(OC)C(c3ccccc3)C21 (stereo unspecified),–,inconclusive: -98% [inhibitor]
Cc1cc(C(F)(F)F)nn1Cc1n[nH]c(=S)n1-c1ccc(Cl)cc1,active: 1.58 µM,–
COc1ccc(C(=O)NCC(c2ccco2)S(=O)(=O)c2ccccc2)cc1 (stereo unspecified),"inconclusive: 4.47 µM [inhibitor, single point]",–
C=CCOc1ccc(C2/C(=C(\O)c3ccc4c(c3)OCCO4)C(=O)C(=O)N2CCCN2CCOCC2)cc1 (stereo unspecified),active: 50.1 µM,–

SMILES,Potency,"activity, negative = inhibition"
CCOc1ncccc1C(=O)OCC(=O)Nc1cc(C)ccc1C,inactive,–
CC1CCc2nc(N)c(C#N)c(-c3ccncc3)c2C1 (stereo unspecified),"inconclusive: 0.631 µM [inhibitor, partial curve, poor fit]",–
CC(C)(C)n1nc2c(c1NC(=O)c1ccc(Br)o1)CS(=O)C2 (stereo unspecified),"inconclusive: 100 µM [inhibitor, single point]",–
O=C(CN1C(=O)c2cccc([N+](=O)[O-])c2C1=O)OCC(=O)N1CCCCC1,"inconclusive: 89.1 µM [inhibitor, single point]",–
CCN(CC)CCN(CC(=O)N(C1CCCCC1)C1CCCCC1)C(=O)c1cccnc1,active: 50.1 µM,–
O=C(O)CSc1nnc(NC(=O)CN2CCOCC2)s1,"inconclusive: 79.4 µM [inhibitor, partial curve, poor fit]",–
O=C(CSc1nnc(NC(=O)c2ccc(F)cc2)s1)NC1CCCC1,"inconclusive: 100 µM [inhibitor, single point]",–
CCCCS(=O)(=O)N1CN(S(=O)(=O)CCCC)C2NC(=O)NC21 (stereo unspecified),"inconclusive: 63.1 µM [inhibitor, partial curve, poor fit]",–
COCC(=O)N1CCC2(CC1)CCN(C(c1ccccc1)c1ccccc1)CC2,–,inactive: 7.82% [at 12.7 µM]
CCN1CCOC(=O)C1CC(=O)Nc1ccccc1C(F)(F)F (stereo unspecified),active: 2.24 µM,–
CC(C)C[C@@H](CO)N1CCN(CCc2ccccc2)CCC1=O,"inconclusive: 56.2 µM [inhibitor, partial curve, poor fit]",–
Cc1ccc(-c2nnn(CC(=O)N(Cc3ccco3)C(C(=O)NC(C)(C)C)c3cccs3)n2)o1 (stereo unspecified),active: 12.6 µM,–
O=C(CN1CCN(c2ccccn2)CC1)NCc1cccs1,"inconclusive: 5.01 µM [inhibitor, single point]",–
COc1ccc(/C=C\c2nc(=O)c3ccccc3o2)cc1,"inconclusive: 89.1 µM [inhibitor, single point]",–
COc1ccccc1Nc1nnc(SCC(=O)N2CCCC2=O)s1,"inconclusive: 56.2 µM [inhibitor, partial curve, poor fit]",–
CCOc1ccccc1CNS(=O)(=O)c1cnc[nH]1,inactive,–
CC1CCc2c(C(=O)NCC3CCCO3)csc2C1 (stereo unspecified),active: 89.1 µM,–
O=c1c2c(nc3nc[nH]n13)CCC2,"inconclusive: 89.1 µM [inhibitor, single point]",–
COc1ccc(OC)c(NC(=O)c2ccc(S(=O)(=O)N3CCN(C)CC3)cc2)c1,"inconclusive: 39.8 µM [inhibitor, full curve]",–
COc1ccc(NC(=O)CNS(=O)(=O)c2ccc(Cl)cc2)cc1OC,inactive,–
Cc1cc(=O)n2nc(N3CCCC(C(=O)N4CCN(C)CC4)C3)sc2n1 (stereo unspecified),"inconclusive: 39.8 µM [inhibitor, single point]",–
COc1ccc(S(=O)(=O)N(CC(=O)Nc2ccccc2C(=O)N2CCOCC2)c2ccc(F)cc2)cc1,"inconclusive: 31.6 µM [inhibitor, partial curve]",–
CC(=O)c1ccc(NC(=O)c2cccc(NC(=O)N3CCSc4ncccc43)c2)cc1,"inconclusive: 5.62 µM [inhibitor, single point]",–
C/C(=N\Nc1nncc2ccccc12)c1cccc(OC(F)F)c1,inactive,–

SMILES,Potency,"activity, negative = inhibition"
COc1cc(/C(C#N)=C/c2cccc3ccccc23)c([N+](=O)[O-])cc1OC,"inconclusive: 70.8 µM [inhibitor, single point]",–
COc1ccc(NC(=O)c2ccco2)c([N+](=O)[O-])c1,"inconclusive: 8.91 µM [inhibitor, partial curve, poor fit]",–
Cc1c(Cl)cccc1NC(=O)CN1C(=O)c2ccccc2Sc2ncccc21,inactive,–
Cc1cccc(C(=O)NC2(C(F)(F)F)N=C(c3ccccc3)N(Cc3ccccc3)C2=O)c1 (stereo unspecified),inactive,–
CCc1ccccc1Nc1nn2c(=O)c3ccc(C(=O)NCCc4ccccc4)cc3nc2s1,"inconclusive: 8.91 µM [inhibitor, single point]",–
O=C(NC(=S)Nc1ccc(CN2CCOCC2)cc1)c1cccc([N+](=O)[O-])c1,"inconclusive: 5.01 µM [inhibitor, full curve, poor fit]",–
Cc1ccc(C)c(NC(=O)CSc2ncnc3nc[nH]c23)c1,"inconclusive: 35.5 µM [inhibitor, partial curve, poor fit]",–
CCCCNc1cc(=O)n(C)c(=O)[nH]1,active: 50.1 µM,–
O=C(c1cc2c(s1)CCCC2)N1CCN(c2ccccc2)CC1,"inconclusive: 44.7 µM [inhibitor, partial curve, poor fit]",–
CN1C(=O)NC(NC(=O)c2cccs2)(C(F)(F)F)C1=O (stereo unspecified),"inconclusive: 0.708 µM [inhibitor, full curve, poor fit]",–
COc1cc(O)cc(O)c1C(=O)/C=C/c1ccccc1,inactive,–
O=C(Nc1ccccc1)c1ccc2nc(-c3ccco3)c(-c3ccco3)nc2c1,"inconclusive: 2.82 µM [inhibitor, partial curve, poor fit]",–
CC1CC2C3CC(F)C4=CC(=O)C=C[C@@]4(C)[C@@]3(F)C(O)C[C@]2(C)[C@]1(O)C(=O)COC(=O)C(C)(C)C (stereo partly specified),–,inactive: -30.2% [at 2.33 µM]
Cc1ccc([N+](=O)[O-])cc1NC(=O)Nc1ccc(S(N)(=O)=O)cc1,"inconclusive: 2 µM [inhibitor, partial curve, poor fit]",–
CCOC(=O)CC(NC(=O)c1cc2cccc(OC)c2oc1=O)c1ccc(OC)cc1 (stereo unspecified),inactive,–
CSc1ccccc1C(=O)NC1CCSc2ccccc21 (stereo unspecified),active: 39.8 µM,–
Cc1ccc(Sc2c(O)c3ccccc3n(C)c2=O)cc1,"inconclusive: 89.1 µM [inhibitor, single point]",–
Cc1ccc(S(=O)(=O)NCC(=O)N2CCC(C)CC2)cc1,"inconclusive: 89.1 µM [inhibitor, single point]",–
CCOc1ccc(CC(=O)NNC(=S)Nc2ccc(OC)c(OC)c2)cc1,"inconclusive: 5.01 µM [inhibitor, full curve, poor fit]",–
CCn1c(C)cs/c1=N\C(=S)Nc1ccccc1C,"inconclusive: 28.2 µM [inhibitor, single point]",–
O=[N+]([O-])c1ccc(Cl)c(CN2CCCCCC2)c1,active: 25.1 µM,–
Cc1ccc(C(=O)CN2CCN(c3ccccn3)CC2)c(C)c1,active: 39.8 µM,–
Cc1cccc(NC(=S)N(Cc2ccc(Cl)cc2)Cc2ccc(C(=O)O)cc2)c1,inactive,–

# From PubChem BioAssay AID504332 (National Center for Advancing Translational Sciences (NCATS), 2011)
